Experimental data: PubChem BioAssay (NCI)
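The compound was tested at five concentrations on cells cultured in 96-well plates, with a 48-hour exposure period. GI50 is the concentration that inhibits growth by half. TGI denotes the concentration required for complete inhibition of growth.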

system: NCI-H322M lung; experiment: growth of human tumour cells (NCI), 48 h

Row | SMILES | GI50 [µM] | TGI [µM]
1 | CC(C)(C)Nc1nc2c(OCCc3ccccc3)cccn2c1-c1ccccc1Cl | 8.45 | 22.4
2 | CC(=O)Oc1ccccc1C(=O)Nc1ccc(C(=O)/C=C/c2ccncc2)cc1 | > 100 | > 100
3 | CCN(CC)c1ccc(/C=N/NC(=O)c2ccc(S(N)(=O)=O)cc2)cc1 | 0.343 | 25.5
